# Hit rate of the full screen: of about 310,000 compounds, about 14,000 (4.5%) showed an effect of 50% or more. The effect is printed as a negative number. This is one part of the list.
# Molecular target: human ether-à-go-go-related gene (hERG) potassium channel (human, UniProt Q12809)
# Test: primary screen, population patch clamp on CHO cells stably expressing hERG
# 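Further: peak tail current of the secondary pulse compared with the same well before compound.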
# Chain of human ether-à-go-go-related gene (hERG) potassium channel (Q12809 whole entry, looked up): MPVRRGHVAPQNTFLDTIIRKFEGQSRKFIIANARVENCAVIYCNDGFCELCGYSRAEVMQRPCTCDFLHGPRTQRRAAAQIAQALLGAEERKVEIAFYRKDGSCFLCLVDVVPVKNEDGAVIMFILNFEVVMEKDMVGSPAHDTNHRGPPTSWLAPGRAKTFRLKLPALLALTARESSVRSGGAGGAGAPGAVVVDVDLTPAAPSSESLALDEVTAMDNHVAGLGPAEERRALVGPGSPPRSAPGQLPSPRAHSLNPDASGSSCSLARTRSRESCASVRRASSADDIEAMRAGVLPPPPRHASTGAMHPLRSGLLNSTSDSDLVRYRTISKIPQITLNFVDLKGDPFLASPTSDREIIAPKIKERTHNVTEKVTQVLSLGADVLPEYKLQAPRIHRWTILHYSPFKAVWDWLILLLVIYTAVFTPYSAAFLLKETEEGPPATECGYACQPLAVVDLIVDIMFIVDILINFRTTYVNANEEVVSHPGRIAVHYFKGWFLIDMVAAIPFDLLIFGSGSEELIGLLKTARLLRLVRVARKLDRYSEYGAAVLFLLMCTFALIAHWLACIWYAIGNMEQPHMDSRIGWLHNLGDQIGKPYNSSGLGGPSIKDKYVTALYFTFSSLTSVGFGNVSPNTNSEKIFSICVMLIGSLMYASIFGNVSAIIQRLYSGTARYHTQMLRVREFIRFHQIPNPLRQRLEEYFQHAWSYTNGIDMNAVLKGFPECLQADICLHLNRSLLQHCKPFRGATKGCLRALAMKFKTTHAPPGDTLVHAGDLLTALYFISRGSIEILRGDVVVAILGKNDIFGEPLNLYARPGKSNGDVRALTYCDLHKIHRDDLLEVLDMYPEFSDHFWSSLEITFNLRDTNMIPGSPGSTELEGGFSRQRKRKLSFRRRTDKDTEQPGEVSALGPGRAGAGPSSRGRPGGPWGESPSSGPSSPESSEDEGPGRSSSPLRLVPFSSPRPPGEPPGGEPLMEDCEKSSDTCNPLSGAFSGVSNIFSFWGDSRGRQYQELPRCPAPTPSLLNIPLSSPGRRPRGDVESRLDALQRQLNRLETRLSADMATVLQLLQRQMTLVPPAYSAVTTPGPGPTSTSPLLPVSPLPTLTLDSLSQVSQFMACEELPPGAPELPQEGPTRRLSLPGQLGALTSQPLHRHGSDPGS
row,SMILES,"hERG current change (%, negative = inhibition) at 10uM [%]"
1,Cc1ccccc1NC(=S)NC(NC(=O)CF)C(Cl)(Cl)Cl (centres unmarked),2.77
2,O=C(CN1C(=O)C2CCCCC2C1=O)OCC(=O)c1ccc(Cl)s1 (centres unmarked),-8.33
3,CCN(CC(=O)Nc1c(F)cccc1F)C(=O)c1ccc(S(=O)(=O)N2CCC(C)CC2)cc1,-21
4,CC1(C)CC(OC(=O)c2ccco2)CC(C)(C)N1O.Cl,5.26
5,CCOC(=O)C(=O)NNc1ccccc1OC,13.1
6,O=C(O)C[C@H]1c2cc(F)ccc2S(=O)(=O)N1C1CCCC1,25.7
7,O=C(CN1CCC2(CC1)OCCO2)c1ccc2cc[nH]c2c1,-15.2
8,COc1ccc(C(=O)NNC(=O)C(=O)Nc2ccc(C)cc2)cc1,-3.87
9,O=C(/C=C/c1ccc(S(=O)(=O)N2CCOCC2)cc1)N(CCO)Cc1ccccc1,8.71
10,O=C(Nc1cccc(-c2cn3cccnc3n2)c1)c1ccc2c(c1)OCO2,-18.3
11,COc1cc([N+](=O)[O-])c2nccnc2c1,17.7
12,CCc1nnc(NC(=O)c2nc3nc(C)cc(C)n3n2)s1,8.87
13,Cc1ccc2nc(-c3cccnc3)c(NC3CCCCC3)n2c1,15
14,COC(=O)c1cn(NC(=O)Cc2ccc(OC)c(OC)c2)c(=O)c2ccccc12,-1.78
15,CCOc1ccc(-c2c(C#N)c(N)nc3sc(C(=O)c4ccccc4)c(N)c23)cc1,8.12
16,Cc1cc(C(=O)NNS(=O)(=O)c2ccc(C(C)(C)C)cc2)nn1C(C)(C)C,-10.5
17,CCc1cc(C(=O)OC)c(NC(=O)CC2Sc3ccc(C(F)(F)F)cc3NC2=O)s1 (centres unmarked),20.7
18,CCOC(=O)Cc1csc(NC(=O)c2ccc(S(=O)(=O)N3CCCCC3)cc2)n1,-42.2
19,O=C1CCCc2nc(N3CCCCC3)sc21,9.36
20,CCN(CC(=O)Nc1ccc(NC(C)=O)cc1)C(=O)c1ccc(NC2CC2)c([N+](=O)[O-])c1,-46.1
21,CC(=O)C1=C(C)N(Cc2ccco2)C(=O)C1(NC(=O)C1CCCCC1)C(F)(F)F (centres unmarked),1.21
22,COc1ccc(-c2nc(CS(=O)(=O)CC(=O)NCCCN3CCN(C)CC3)c(C)o2)cc1,-2.65
23,O=C(Cc1ccc(Cl)cc1)NCCc1ccc(F)cc1,-2.82

row,SMILES,"hERG current change (%, negative = inhibition) at 10uM [%]"
1,Cn1cnc(S(=O)(=O)NCc2ccc(Br)cc2)c1,-5.05
2,Cc1c(C(=O)NCc2ccc3c(c2)OCO3)oc2ccc(S(=O)(=O)N3CCC(C)CC3)cc12,-5.97
3,Cc1cccc2nc(CSc3nnnn3-c3ccccc3)cn12,-41.5
4,NS(=O)(=O)c1ccc(CNC(=O)c2ccc(Cl)c([N+](=O)[O-])c2)cc1,7.39
5,O=C(Nc1nnc(-c2cccs2)o1)c1cccc(F)c1,11.8
6,Cc1cc(C)n2nc(SCc3nnc(SCc4ccccc4C)s3)nc2n1,-64.9
7,Cc1c2cnn(CC(=O)Nc3cccc(C(F)(F)F)c3)c(=O)c2c(C)n1Cc1ccccc1F,0.975
8,CCn1c(SCC(=O)Nc2ccccc2)nnc1C1CCCCC1,9.8
9,Oc1ccc(-c2nccc(-c3ccc(F)cc3)n2)cc1,17.6
10,O=C(O)CC(NC(=O)c1ccccc1NC(=O)c1ccccc1)C(=O)O (centres unmarked),10.2
11,COC(=O)c1c(NC(=O)C(=O)NCCCN2CCOCC2)sc2c1CCCC2,-11.6
12,CCCN1CCN(CCCNC(=O)c2ccc3nc(N4CCC(C)CC4)sc3c2)CC1,-50.7
13,CCCCCCCN1CCN=C1Nc1ccccc1,-58
14,CN(C1=C(N2CCCCC2)C(=O)c2ccccc2C1=O)c1ccccc1,8.22
15,CC(C)CCN1CCN(Cc2cccn2-c2cccnc2)CC1CCO (centres unmarked),-32.5
16,Cc1noc(NC(=O)c2ccccc2)c1C#N,11.8
17,O=C(CSc1n[nH]c(-c2ccc(S(=O)(=O)N3CCCCC3)cc2)n1)Nc1nccs1,0.555
18,Clc1ccc2[nH]c3c(NCCCN4CCOCC4)ncnc3c2c1,-69.9
19,CCc1ccccc1N(C)C(=O)CCc1nc(-c2ccc(C)cc2)no1,-0.297
20,CCOc1ccc(-c2nnn(CC(=O)c3ccc4c(c3)OCCO4)n2)cc1OCC,-1.86
21,Clc1ccc(Oc2cnc3ccccc3n2)cc1,-2.92
22,C(=N\n1cnnc1)/c1cn(Cc2ccccc2)c2ccccc12,14.9
23,CC(C)CN(C(=O)c1ccc2c(c1)OCO2)C1CCS(=O)(=O)C1 (centres unmarked),-3.84

row,SMILES,"hERG current change (%, negative = inhibition) at 10uM [%]"
1,Cc1ccc(S(=O)(=O)Nc2ccc(Cl)cn2)cc1C,15
2,Cc1cc(C)c2nc(C(F)(F)F)nc(N3CC(C)OC(C)C3)c2c1 (centres unmarked),12
3,Cc1ccc(C(=O)Nc2ccncc2)c(Cl)c1,4.14
4,O=C(CN1C(=O)NC2(CCCCC2)C1=O)NCCc1c[nH]c2ccccc12,13.6
5,CCOC(=O)/C(=N\Nc1ccc(Cl)cc1)c1csc(Nc2ccccc2)n1,5.88
6,COc1ccc(-c2[nH]ncc2-c2csc(C)n2)c(O)c1,15.2
7,CCOC(=O)Nc1sc2c(c1C#N)CCC(C)C2 (centres unmarked),8.9
8,O=C(OCCOc1cccc(Cl)c1)c1ccc(F)c(S(=O)(=O)N2CCOCC2)c1,0.127
9,CCOc1ccc(C(=O)CCC(=O)Nc2ccccc2C)cc1,9.46
10,COC(=O)c1c(NC(=O)c2cccnc2)sc(C(=O)N(C)C)c1C,5.5
11,CCCC(c1nnnn1Cc1ccc(OC)cc1)N1CCN(C(=O)c2ccco2)CC1 (centres unmarked),-51.3
12,COc1cc(C(c2c(C)[nH][nH]c2=O)c2c(C)[nH][nH]c2=O)ccc1OC(=O)c1cccc([N+](=O)[O-])c1,10.4
13,O=C(OCN1C(=O)c2ccccc2C1=O)c1cccnc1SC(F)F,-6.46
14,Cc1cc(C(=O)N/N=C/c2ccco2)c2ccccc2n1,1.37
15,Cc1ccc(SCCNC(=S)Nc2ccccc2)cc1,0.545
16,COc1ccc(S(=O)(=O)N2CCN(CC(O)CN3CCOCC3)CC2)cc1 (centres unmarked),9.52
17,CC(NC(=O)CNC(=S)N(Cc1ccccc1)Cc1cccnc1)c1ccccc1 (centres unmarked),3.93
18,CN1CCN(c2nc(-c3ccco3)cc(C(F)(F)F)n2)CC1,-62.8
19,COc1ccccc1-c1ccc(SCc2ccccc2)nn1,-29.2
20,COc1cccc(C(=O)Nc2cccc(C(=O)NC3=NN(c4c(Cl)cc(Cl)cc4Cl)C(=O)C3)c2)c1,6.82
21,COc1ccc(OC)c(NC(=O)c2ccccc2OC(C)=O)c1,10.8
22,Cc1nc2nc(-c3cccs3)[nH]c2cc1Br,-3.94
23,CC1(C)CC(=O)CC(C)(C)N1OC(=O)c1ccco1,-0.117

row,SMILES,"hERG current change (%, negative = inhibition) at 10uM [%]"
1,COc1cccc2cc(C(=O)N3CCN(C(=O)c4ccccc4)CC3)c(=O)oc12,7.71
2,Cc1ccc(NC(=O)C2CCCN2C(=O)OCc2ccccc2)cc1F (centres unmarked),-12.4
3,O=C(Oc1ccc(-c2nnco2)cc1)c1ccco1,11.3
4,C=CCn1c(SCC(=O)Nc2ccc3c(c2)CCC3)nnc1-c1cccs1,-76.9
5,OC(COC(c1ccccc1)c1ccccc1)CN1CCN(c2cccc(Cl)c2)CC1 (centres unmarked),6.16
6,C=CCn1c(SCC(=O)Nc2ncc(Cc3cc(C(F)(F)F)ccc3Cl)s2)nnc1-c1ccncc1,11.1
7,Cc1ccc(O)c(NC(=O)c2cc(-c3ccco3)on2)c1,8.04
8,COc1ccc(NC(=O)/C(C#N)=C/c2ccc(-c3ccccc3C(=O)O)o2)cc1,11.8
9,Cc1ccc(CNC(=O)C2CC(c3ccccc3[N+](=O)[O-])=NO2)cc1 (centres unmarked),-36.1
10,CCCOc1ccc(OCCSc2ncccn2)cc1,-2.55
11,CSCCC(NC(=O)c1ccco1)C(=O)NCC1CCCCC1 (centres unmarked),-7.41
12,COc1ccc(NC(=O)CN(C)CC(=O)Nc2sc3c(c2C(N)=O)CCC3)cc1,-79
13,CC(=O)C1=C(C)NC2=C(C(=O)CC(C)(C)C2)C1C (centres unmarked),47.1
14,O=C(CSc1nc2[nH]c(=O)[nH]c(=O)c2s1)Nc1cccc(F)c1,9.84
15,CCOc1ccc(-c2cn(-c3cccc(SC)c3)c(=O)[nH]2)cc1,-6.98
16,Cc1c(CC(=O)NCC(=O)N[C@H](Cc2ccccc2)C(=O)O)c(=O)oc2cc(O)ccc12,7.77
17,O=C(O)CN1CCCC1=Nc1ccccc1,1.04
18,O=C(NC1CCCC1)C(c1ccccc1)N(Cc1cccnc1)C(=O)Cc1cccs1 (centres unmarked),7.69
19,CCOC(=O)C1=C(CSc2nc(-c3ccccc3)ccc2C#N)OC(N)=C(C#N)C1c1cccnc1 (centres unmarked),-4.37
20,COc1cccc(NC(=O)c2ccc(S(=O)(=O)N(C)C)cc2)c1,-3.75

# From article PMC4336329 (PLoS ONE, 2015)
